Results reported in US20200140562A1 (Innovent, published 2020).

T1: human OX40 on cells (CHO-hOX40, 293HEK-hOX40, Jurkat-hOX40, activated primary CD4+ T cells) (human, UniProt P43489 29-277)
T1 construct: whole, on cells; The cell type is told in each assay; also called CHO-OX40
T1 sequence (looked up): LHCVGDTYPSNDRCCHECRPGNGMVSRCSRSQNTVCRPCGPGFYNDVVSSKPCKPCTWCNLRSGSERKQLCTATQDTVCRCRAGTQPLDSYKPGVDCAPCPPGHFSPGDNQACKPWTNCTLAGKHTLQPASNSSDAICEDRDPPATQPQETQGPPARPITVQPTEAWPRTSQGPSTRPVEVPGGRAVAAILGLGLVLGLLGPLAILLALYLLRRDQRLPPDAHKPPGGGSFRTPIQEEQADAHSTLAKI

T2: mouse OX40Fc (Acro Biosystems) (mouse, UniProt P47741 20-211, limits assumed)
T2 construct: Bought; not shown: Fc
T2 sequence (looked up): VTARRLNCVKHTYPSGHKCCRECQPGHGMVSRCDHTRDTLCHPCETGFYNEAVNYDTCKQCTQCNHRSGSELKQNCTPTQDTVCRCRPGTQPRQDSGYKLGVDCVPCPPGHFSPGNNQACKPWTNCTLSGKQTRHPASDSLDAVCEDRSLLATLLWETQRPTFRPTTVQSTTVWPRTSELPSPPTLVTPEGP


Columns and labels:
[1] = target: T1, human OX40 on cells (CHO-hOX40, …); experiment: flow cytometry, CHO-hOX40, 25 nM
[2] = target: T1, human OX40 on cells (CHO-hOX40, …); experiment: flow cytometry, CHO-hOX40, 50 nM
[3] = target: T1, human OX40 on cells (CHO-hOX40, …); experiment: flow cytometry, CHO-hOX40, 100 nM
[4] = target: T3, human OX40_Fc (R&D Systems) (human, UniProt P43489 29-216); experiment: BLI, IgG1 on tip, hOX40-Fc 50 nM, avid
T3 construct: Bought

[5] = target: T1, human OX40 on cells (CHO-hOX40, …); experiment: flow cytometry, CHO-hOX40, 0.024414063 nM
[6] = target: T1, human OX40 on cells (CHO-hOX40, …); experiment: flow cytometry, CHO-hOX40, 0.048828125 nM
[7] = target: T4, cyno OX40_Fc (Acro Biosystems) (cyno); experiment: BLI, IgG1 on tip, cyno OX40-Fc 100 nM, avid
T4 construct: Bought

[8] = target: T2, mouse OX40Fc (Acro Biosystems); experiment: BLI, IgG1 on tip, mouse OX40-Fc in solution
[9] = target: T1, human OX40 on cells (CHO-hOX40, …); experiment: flow cytometry, CHO-hOX40, IgG1 made in 293HEK
[10] = target: T1, human OX40 on cells (CHO-hOX40, …); experiment: flow cytometry, MFI on CHO-hOX40 over wild-type CHO
[11] = target: T1, human OX40 on cells (CHO-hOX40, …); experiment: flow cytometry, CHO-hOX40, 100 nM blocker, competitor OX40L-hFc-fluorescein
[12] = target: T2, mouse OX40Fc (Acro Biosystems); experiment: BLI, IgG1 on tip, mouse OX40-Fc in solution; remark: listed apart in the source

| MFI [1] [MFI] | MFI [2] [MFI] | CHO-OX40 binding intensity (MFI) [3] [MFI] | Kd [4] [nM] | MFI [5] [MFI] | MFI [6] [MFI] | Kd [7] [nM] | binding result [8] | EC50 [9] [nM] | Fold difference [10] [fold] | MFI of OX40L signal on CHO-OX40 cells [11] [MFI] | binding result [12] | Binder |
| --- | --- | --- | --- | --- | --- | --- | --- | --- | --- | --- | --- | --- |
| 3.86e+06 | 4.04e+06 | 244000 | 0.775 | 36800 | 56300 | 6.82 | no binding (tested: 100 nM) | 2.8 | 2080 | 22500 | – | ADI-20112, IgG1 format (antibody, Made in yeast, 293HEK or CHO cells, depending on the assay; also called ADI-20112-g1) heavy: QVQLVESGGGVVQPGRSLRLSCAASGFTFSSYGMHWVRQAPGKGLEWVAVISYDGSNKYYADSVKGRFTISRDNSKNTLYLQMNSLRAEDTAVYYCARGRPWYSETGTSAFDIWGQGTMVTVSS[human IgG1 constant region cut from this listing] light: DIQMTQSPSSLSASVGDRVTITCQASQDISNYLNWYQQKPGKAPKLLIYDASNLETGVPSRFSGSGSGTDFTFTISSLQPEDIATYYCQQSDHYPTFGGGTKVEIKRTVAAPSVFIFPPSDEQLKSGTASVVCLLNNFYPREAKVQWKVDNALQSGNSQESVTEQDSKDSTYSLSSTLTLSKADYEKHKVYACEVTHQGLSSPVTKSFNRGEC |
| 3.4e+06 | 3.35e+06 | – | – | 19000 | 42700 | – | – | 6.71 | – | 26600 | no binding (tested: 100 nM) | ADI-20118, IgG1 format (antibody, Made in yeast or 293HEK cells, depending on the assay) heavy: QVQLVQSGAEVKKPGASVKVSCKASGYTFTSYAISWVRQAPGQGLEWMGWISAYNGNTNYAQKLQGRVTMTTDTSTSTAYMELRSLRSDDTAVYYCARSGGGSGPNWFDPWGQGTLVTVSS[human IgG1 constant region cut from this listing] light: DIQMTQSPSSLSASVGDRVTITCQASQDISNYLNWYQQKPGKAPKLLIYDASNLETGVPSRFSGSGSGTDFTFTISSLQPEDIATYYCQQPATLPWTFGGGTKVEIKRTVAAPSVFIFPPSDEQLKSGTASVVCLLNNFYPREAKVQWKVDNALQSGNSQESVTEQDSKDSTYSLSSTLTLSKADYEKHKVYACEVTHQGLSSPVTKSFNRGEC |
| 3.89e+06 | 3.8e+06 | – | – | 43200 | 63900 | – | – | 2.73 | – | 17200 | no binding (tested: 100 nM) | ADI-20051, IgG1 format (antibody, Made in yeast or 293HEK cells, depending on the assay) heavy: QVQLQQWGAGLLKPSETLSLTCAVYGGSFSGYYWSWIRQPPGKGLEWIGEIDHSGSTNYNPSLKSRVTISVDTSKNQFSLKLSSVTAADTAVYYCARDGGGGYASPFDYWGQGTLVTVSS[human IgG1 constant region cut from this listing] light: EIVMTQSPATLSVSPGERATLSCRASQSVSSNLAWYQQKPGQAPRLLIYGASTRATGIPARFSGSGSGTEFTLTISSLQSEDFAVYYCQQYHAWPPTFGGGTKVEIKRTVAAPSVFIFPPSDEQLKSGTASVVCLLNNFYPREAKVQWKVDNALQSGNSQESVTEQDSKDSTYSLSSTLTLSKADYEKHKVYACEVTHQGLSSPVTKSFNRGEC |

Read-outs that look alike come from different tables or passages of the source.
